Hit rate of the full screen: of about 280,000 compounds, about 100 (0.036%) were called active. Inconclusive means that the source gave no clear call. Such entries were picked first, then a sample of the others. The call rests on the fitted dose curve; in most records, active means well fitted inhibition curve with a large enough effect in the signal ratio, with a control signal flat (not every such curve was filed as active); inconclusive means small, poorly fitted or top-dose-only effect, or effect the other way, or a change in a side signal; inactive means no such curve, though single readings can be large or run the other way; the % refers to the signal ratio. Where the call is inconclusive, the potency comes from a doubtful curve fit. “Side channel” marks fits to a control or component signal instead of the main read-out.
Target: Muscleblind-like protein 1 (Homo sapiens) (UniProt Q9NR56)
Experiment: qHTS Assay for Inhibitors of MBNL1-poly(CUG) RNA binding
Details: TR-FRET MBNL1-His/biotin-(CUG)12 binding, 665/545 ratio; activity change, negative = inhibition: at 57.5 µM (top of the series)
Source text: NIH Chemical Genomics Center [NCGC] NIH Molecular Libraries Probe Production Centers Network [MLPCN] MLPCN Grant: R03 MH087421-01 Assay Submitter (PI): Charles Thornton NCGC Assay Overview: Expanded CTG repeats in the 3' untranslated region of the DM protein kinase (DMPK) gene causes type I myotonic dystrophy (DM1). DM1 is a multi-systemic disease with a prevalence of 1/7000. Clinical features include myotonia, progressive muscle weakness and wasting, cardiac arrhythmia, insulin resistance, hypersomnolence, cataracts, and other symptoms. The pathogenic effect of expanded CTG repeats stems from deleterious effects of the mutant transcript. CUGexp mRNA accumulates in nuclear foci and sequesters proteins of the muscleblind family, of which MBNL1 is the most common family member in skeletal muscles. The binding interaction between MBNL1 and CUGexp tracts leads to deregulation of alternative splicing and is therefore a key molecular step in the pathogenesis of DM1. To target this binding interaction, we optimized a protein-RNA binding assay in 1536-well format for identification of small molecule inhibitors of biotinylated (CUG)12 and his-tagged MBNL1 binding. Protein-RNA complex of MBNL1-His and Biotin-(CUG)12 captures the detection reagents terbium-labeled anti-His antibody and streptavidin conjugated XL665. This brings the terbium label within close proximity to XL665 to allow time-resolved fluorescence resonance energy transfer (TR-FRET). Inhibitors of MBNL1-(CUG)12 binding will disrupt TR-FRET.
NCGC Assay Protocol Summary: This is a TR-FRET binding assay with MBNL1-His and Biotin-(CUG)12 RNA. The assay uses a ratiometric measurement. In the presence of MBNL1-(CUG)12 complex, the excitation energy is transferred to the XL665 acceptor label, causing emission at 665nm, while the 545nm donor signal […]. Data were normalized to the controls for basal activity (buffer only) and 100% activity (with MBNL1-(CUG)12). […] The final titration was 92 nM to 58 uM. (3) Add 1 ul of terbium labeled anti-His antibody (0.055 ng/ul final concentration) (4) Add 1 ul of streptavidin-XL665 (5 nM final concentration) (5) Incubate 60 min at room temperature (6) Detect the assay plate in a EnVision plate reader (PerkinElmer) with Ex=340 nm, Em1=665 nm and Em2=545 nm. Keywords: mytonic dystrophy type I, DM1, muscleblind like 1, MBNL1, CUG expansion, protein-RNA binding inhibitor, high throughput screening, MLSMR, MLSCN, NIH Roadmap, qHTS and NCGC
On the % scale 0 is the no-effect control and ±100 the full control effect; potency means the concentration at half of the fitted maximal effect; tags describe the fitted curve by direction and shape or compound fluorescence and quenching.

UniProt Q9NR56, sequence (Q9NR56 whole entry, looked up): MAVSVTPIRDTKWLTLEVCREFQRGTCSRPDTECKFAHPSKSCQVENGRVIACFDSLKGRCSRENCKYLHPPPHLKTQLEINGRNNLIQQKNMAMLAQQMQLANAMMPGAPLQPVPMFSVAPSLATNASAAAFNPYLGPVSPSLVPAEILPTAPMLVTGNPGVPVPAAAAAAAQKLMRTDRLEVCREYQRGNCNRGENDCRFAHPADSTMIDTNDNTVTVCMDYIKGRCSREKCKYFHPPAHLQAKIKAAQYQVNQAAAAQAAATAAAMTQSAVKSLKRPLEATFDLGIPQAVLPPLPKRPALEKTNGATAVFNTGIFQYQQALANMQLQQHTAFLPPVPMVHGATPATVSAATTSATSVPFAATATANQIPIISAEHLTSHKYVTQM

SMILES	Potency	activity change, negative = inhibition
CN1C(=O)c2ccc(NC(=O)C3CC3)cc2C1=O	inconclusive: 15.8 µM [quencher, side channel, partial curve]	–
O=C(NC1CCCCC1)c1ccccc1NC(=O)C1CC(=O)N(c2ccc(Cl)cc2)C1 (configuration not stated)	active: 15.8 µM	–
CC1(C)CC(NC(=O)c2ccc(-c3ccc([N+](=O)[O-])cc3)o2)CC(C)(C)N1	inconclusive: 14.1 µM [quencher, side channel, partial curve]	–
O=[N+]([O-])c1ccc(CN2CCN(c3ccc([N+](=O)[O-])cc3)CC2)cc1	inconclusive: 20 µM [quencher, side channel, partial curve]	–
Cn1cccc1/C=C1\SC(=S)N(NC(=O)c2ccccc2Cl)C1=O	inconclusive: 4.47 µM [quencher, side channel, full curve]	–
O=C(NCCNc1ccc([N+](=O)[O-])cc1)c1cccs1	inconclusive: 15.8 µM [quencher, side channel, partial curve]	–
CCc1ccc(CN(C)Cc2nc(Cc3cccc(C(F)(F)F)c3)no2)nc1	–	inactive: 1.11%
N#Cc1c(-c2cccc([N+](=O)[O-])c2)nc2n(c1=O)CCS2	inconclusive: 10 µM [quencher, side channel, partial curve]	–
O=C(NN1CCN(Cc2ccccc2)CC1)c1ccc(N2CCOCC2)c([N+](=O)[O-])c1	inconclusive: 15.8 µM [quencher, side channel, partial curve]	–
O=[N+]([O-])c1cccc(S(=O)(=O)c2ccc(N3CCCCC3)c([N+](=O)[O-])c2)c1	inconclusive: 25.1 µM [quencher, side channel, single point]	–
N#C/C(=N\Nc1ccc(Cl)cc1)C(N)=S	inconclusive: 15.8 µM [quencher, side channel, partial curve]	–
COc1ccc(/C=C/C(=O)NCc2ccc(F)cc2)cc1S(=O)(=O)N1CCOCC1	inconclusive: 12.6 µM [quencher, side channel, partial curve]	–
CC(c1ccccc1)N1C(=O)c2cccnc2C1=O (configuration not stated)	inconclusive: 22.4 µM [quencher, side channel, single point]	–
O=C(Nc1cc(Cl)ccc1-n1cncn1)c1ccc([N+](=O)[O-])s1	inconclusive: 7.94 µM [quencher, side channel, partial curve]	–
Cc1cc(C(=O)Nc2ccc(OCc3ccccc3)cc2)c(C)o1	–	inactive: -9.83%
OCCC1CN(Cc2ccc3nsnc3c2)CCN1C1CCCCC1 (configuration not stated)	inconclusive: 17.8 µM [quencher, partial curve]	–
CCN(CC)c1ccc(/C=N/NC(=O)CNC(=O)c2ccccn2)cc1	inconclusive: 15.8 µM [quencher, side channel, partial curve]	–
COc1ccc2nc(N=Nc3ccc(N(C)C)cc3)sc2c1	–	inactive: 7.27%
O=C1N(Cc2cccc(Cl)c2)C[C@@H]2C[C@@H](c3cccn3-c3ccccn3)N3CCC[C@@]123	inconclusive: 10 µM [inhibitor, single point]	–

SMILES	Potency	activity change, negative = inhibition
O=[N+]([O-])c1ccc(N2CCN(c3ccccc3Cl)CC2)cn1	inconclusive: 2.82 µM [quencher, side channel, full curve, poor fit]	–
O=C(NC1CCCCC1)OCCN1CCN(Cc2ccccc2)CCC1=O	inconclusive: 63.1 µM [inhibitor, single point]	–
CC(C)(C)Nc1nc2cc([N+](=O)[O-])ccc2o1	inconclusive: 15.8 µM [quencher, side channel, partial curve]	–
Cn1c2c(c(=O)[nH]c1=O)C(c1ccc(O)cc1)C1=C(N2)c2ccccc2C1=O (configuration not stated)	inconclusive: 7.08 µM [quencher, side channel, partial curve]	–
O=C(N/N=C/c1ccccn1)c1ccncc1	–	inactive: 16.3%
CCCC(=O)Nc1ccc(C(=O)NNC(=O)c2cccc([N+](=O)[O-])c2)cc1	inconclusive: 2.82 µM [quencher, side channel, partial curve, poor fit]	–
O=C1C(Cl)=C(NCC2CCCO2)C(=O)N1Cc1ccccc1 (configuration not stated)	inconclusive: 25.1 µM [quencher, side channel, partial curve]	–
O=C(c1cc([N+](=O)[O-])ccc1Cl)N1CCN(Cc2ccc3c(c2)OCO3)CC1	inconclusive: 17.8 µM [quencher, side channel, single point]	–
CCC(C)NC(=O)C(Cc1ccccc1)NS(=O)(=O)c1cccc2nsnc12 (configuration not stated)	inconclusive: 12.6 µM [quencher, side channel, partial curve]	–
Cc1cc(C)c2c(c1)[C@@H]1C=CC[C@@H]1[C@H](c1ccc(S(=O)(=O)N3CCOCC3)cc1)N2	inconclusive: 8.91 µM [quencher, side channel, single point]	–
CCN(C(=O)CN1C(=O)/C(=C/c2ccc(F)cc2)SC1=S)C1CCS(=O)(=O)C1 (configuration not stated)	inconclusive: 11.2 µM [quencher, side channel, partial curve]	–
NC(=O)Cn1nc([N+](=O)[O-])nc1Oc1ccc(Br)cc1	inconclusive: 17.8 µM [quencher, side channel, partial curve]	–
O=C(CCCC(=O)Nc1cccc(Br)c1)N/N=C/c1cc([N+](=O)[O-])ccc1O	inconclusive: 39.8 µM [quencher, side channel, single point]	–
CCOc1cccc(/C=N/NC(=O)c2cccnc2)c1O	–	inactive: 29.1%
COc1ccc(C2=CC(c3ccc(C)cc3)n3nnnc3N2)cc1 (configuration not stated)	inconclusive: 44.7 µM [quencher, side channel, partial curve, poor fit]	–
C=CCNC(=O)c1c(Cl)cccc1Cl	inconclusive: 7.94 µM [quencher, side channel, single point]	–
O=C(Nc1ccccc1)Nc1cccc2nsnc12	inconclusive: 14.1 µM [quencher, side channel, partial curve]	–
CC(C)CN(c1ccccc1)S(=O)(=O)c1nnc(NC(=O)c2ccco2)s1	–	inactive: -8.07%

Source: PubChem BioAssay AID2675 (National Center for Advancing Translational Sciences (NCATS), 2010)
